Measured values published in PubChem BioAssay AID1963576 (National Center for Advancing Translational Sciences (NCATS), 2024).
The whole screen tested about 46,000 compounds, of which about 60 (0.1%) were called active. Roughly 3% stayed inconclusive and do not appear here. Calls follow the shape of the dose curve; as a rule, active = well fitted inhibition curve with a large enough effect; inconclusive = small, poorly fitted or top-dose-only effect; inactive = no such curve, though single readings can be large or run the other way. This is one part of the list.

assay: Primary qHTS assay for Inhibitors of ovarian cancer metastasis using an organotypic tumor microenvironment (TME) model.; also: nearly all actives have a fitted effect of over 65% in size;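 as to activity change, negative = inhibition: plate controls were DMSO wells for no effect and tomatine positive control wells for full effect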; details: SKOV3ip1-GFP adhesion/invasion on 3D omental model, fluorescence; series mostly up to 45.8 µM; activity change, negative = inhibition: at the top concentration
How it was run: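 Adhesion/invasion was scored as fixed GFP-labeled SKOV3ip1 cell counts (488/509 nm), normalized to DMSO and tomatine controls. Cancer cells in serum-free medium, with four compound doses (0.36-46 umol/L), sat 2 hr at RT then 16 hr at 37 C on a 48 hr fibroblast/mesothelial/ECM culture.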

Activity change, negative = inhibition, inactive:
COc1ccc(CCNC(=O)c2ccc3c(c2)c(C)c(C)n3Cc2ccccc2)c(OC)c1OC 23.7%
Cc1ccc(CCNC(=O)C2CC(=O)N(CCc3ccccc3)C2)cc1 (stereo unspecified) 8.48%
Cc1ccc(C(=O)Nc2cccc(C(F)(F)F)c2)cc1Nc1nc(-c2cccnc2)nc2c1cnn2C -31.1%
Cn1cc(C(=O)NCCc2ccc(Cl)cc2)c(=O)c2cc(S(=O)(=O)N3CCOCC3)ccc21 1.56%
COc1ccc(CNC(=O)CCCc2nnc3n(CCC(C)C)c(=O)c4sccc4n23)cc1 2.12%
O=c1[nH]c(C2CCCN(S(=O)(=O)c3ccccc3Cl)C2)nc2c1nnn2Cc1ccc(OC(F)(F)F)cc1 (stereo unspecified) 4.64%
O=C(Nc1cccc(Cl)c1)c1cc(-c2ccccc2)on1 5.37%
O=C(Nc1nnc(S(=O)(=O)N2CCCCCC2)s1)c1cccc(Br)c1 8.93%
Cc1noc(-c2ccc(CSCCC(=O)O)cc2)c1NC(=O)OC(C)c1ccccc1Cl (stereo unspecified) -19.7%
Cc1cccc(N2CCN(C(=O)Cn3ncc4c3-c3ccccc3OC4)CC2)c1C 0.851%
CCc1nnc(SCc2ccc(F)cc2Cl)c2cc3sc(C)cc3n12 9.34%
COc1ccc(CNCCCSc2nnnn2C)c(OC)c1 -1.24%
CC(=O)c1ccc(NC(=O)c2nc(-c3ccccc3)n(-c3ccccc3Cl)n2)cc1 -8.03%
Clc1cccc(N2CCN(c3c4c(nc5nncn35)CCC4)CC2)c1 -4.71%
Cn1cnc(S(=O)(=O)N2CCC(C(=O)Nc3ccc(C#N)cc3)CC2)c1 15.8%
CCOC(=O)N1c2ccc(C(F)(F)F)cc2[C@@H](N(Cc2cc(C(F)(F)F)cc(C(F)(F)F)c2)C(=O)OC)C[C@H]1CC 4.48%
CCOc1ccc(C(=O)Nc2onc3c2CCCC3)cc1 0.872%
O=C(COc1ccccc1)Nc1ccc2nc(SCC(=O)N3CCc4ccccc43)sc2c1 0.205%
N#Cc1ccccc1Cn1c(SCC(=O)Nc2ccc(F)cc2)nc2ccccc21 15.5%
CCOc1ccc(CNC(=O)C2CCN(S(=O)(=O)c3ccc4c(ccn4C)c3)CC2)cc1 2.96%
Cc1nn(CC(=O)NCC(C)c2ccccc2)c(=O)c2cc3ccccc3n12 (stereo unspecified) 23.2%
COc1cccc(CNC(=O)CCn2c(=O)c3cccn3c3cccnc32)c1OC -14.7%
COc1ccc(N(C)C(=O)c2nc(-c3cccc(F)c3)n3c2CCCCC3)c(OC)c1 -0.0494%
Cc1c(C(=O)Nc2ccc(-c3nc4cc(Cl)ccc4o3)cc2)oc2ccccc12 14.3%
Cc1ccccc1NC(=O)CSc1cn(CC(=O)N2CCCC2)c2ccccc12 -0.656%
CCCCn1c(=O)c2oc3ccccc3c2n(Cc2cccc(C)c2)c1=O -9.44%
COc1cc2oc(=O)c(CC(=O)NCc3ccc(OC)c(OC)c3)c(C)c2cc1Cl 9.84%
Cc1ccc(-c2noc(-c3ccc(N4CCCCC4C)c([N+](=O)[O-])c3)n2)cc1 (stereo unspecified) -4.25%
CCS(=O)(=O)N1CCC2(CC1)OC(=O)C(C)=C2C(=O)NCc1ccccc1C 0.82%
Cc1c(-c2cccc(NC(=O)Nc3ccccc3)c2)nc2ncccn12 -26%
Cc1ccc(S(=O)(=O)N2CCc3cc(C(=O)NCCc4ccccc4)ccc32)cc1 -20.1%
CC1(C)O[C@@H]2C[C@@H]3[C@H]4C[C@@H](F)C5=CC(=O)C=C[C@]5(C)[C@@]4(F)[C@@H](O)C[C@]3(C)[C@]2(C(=O)CO)O1 27.1%
CCc1nnc2c(Nc3cccc(C(C)=O)c3)nc3ccccc3n12 11.7%
COc1ccc(-c2cc(C(F)(F)F)nc(SCC(=O)NCc3ccc(OC)c(OC)c3)n2)cc1 12.9%
COc1ccc2c(c1)cc1c(=O)n(CC(=O)NCc3ccco3)nc(C)n12 -7.57%
COc1ccccc1N(CC(=O)NCCSCc1ccccc1)S(C)(=O)=O 50.9%
COc1ccc(C)cc1NC(=O)CN(c1ccccc1)S(=O)(=O)N(C)C 13%
CCCCc1nn2c(=O)cc(COC(=O)COc3ccc(C)cc3)nc2s1 124%
COc1cccc(C(=O)Nc2cccc(OCc3cc(=O)n4cc(C)ccc4n3)c2)c1 24.8%
CCOc1ccc(C(=O)NCc2ccc3c(c2)CCN3C(=O)c2ccccc2)cc1 14.9%
O=C(Nc1ccc(F)cc1Cl)n1ncc2cc(Cl)ccc21 0.574%
CC1=C(C(=O)Nc2ccc(C)cc2C)C(c2ccc(O)cc2)n2nnnc2N1 (stereo unspecified) 26.2%
CCc1ccc(NC(=O)CSC2=Nc3ccccc3C3=NC(CCC(=O)NCCc4ccccc4)C(=O)N23)cc1 (stereo unspecified) 8.78%
COc1ccc(/C=C\c2onc(C)c2S(=O)(=O)N2CCC(C(=O)Nc3ccc(C)cc3C)CC2)cc1 1.96%
CCC12CN3CC(C)(CN(C1)C3c1c[nH]c3ccccc13)C2=O (stereo unspecified) 1.54%
CCS(=O)(=O)c1ncc(N(Cc2ccco2)Cc2sccc2C)c(C(=O)Nc2ccc(C)cc2C)n1 1.75%
CCCOc1ccc(C(=O)Nc2cccc(NC(=O)c3cccc(Cl)c3)c2)cc1 1.98%

outcome, inactive:
CCc1nn(CCCC(=O)N2CCN(c3ccc(OC)cc3)CC2)c(=O)c2cc3occc3n12
CCOc1ccc(Nc2ncnc3c2nc2n3CCCCC2)cc1
COc1ccc(NC(=O)C2CCC(CNS(=O)(=O)c3ccc4c(c3)C(C)(C)C(=O)N4C)CC2)cc1 (stereo unspecified)
CCOC(=O)c1ccccc1NC(=O)c1ccc2c(Cl)c3c(nc2c1)CCC3
Cc1c(Cl)cccc1NC(=O)c1cc2sccc2n1Cc1ccc(F)cc1
Cc1cc(-c2ccc(S(=O)(=O)NCc3ccccc3Cl)s2)on1
Cc1ccc(-c2cc(-c3coc4ccccc4c3=O)c3c(n2)-c2ccccc2OC3)cc1
CCOc1ccc(NC(=O)CN2CCN(C3CCCCC3)C(=O)C2=O)cc1
COc1cccc(Cn2c(=O)cc(C)c3c(C)nn(-c4ccc(C)cc4)c32)c1
CCCCc1nn2c(=O)cc(COC(=O)c3cccc(OC)c3)nc2s1
CCOC(=O)CN1C(=O)c2ccccc2Sc2ncccc21
COc1ccc(NC(=O)CN2C(=O)COc3ccc(S(=O)(=O)Nc4ccccc4)cc32)cc1
CCc1ccc(CNC(=O)c2ccc3c(c2)nc2n3CCC(C)C2)cc1 (stereo unspecified)
COc1ccc(-c2onc(C)c2C)cc1S(=O)(=O)NCc1ccco1
